PubChem BioAssay AID504333 (National Center for Advancing Translational Sciences (NCATS), 2011)
The campaign covered roughly 360,000 compounds. About 16,000 (4.4%) were called active. This list was built around the results that the source calls inconclusive (neither active nor inactive); the mix of calls is not that of the screen. The call rests on the fitted dose curve; in most records, active means well fitted inhibition curve with a large enough effect; inconclusive means small, poorly fitted or top-dose-only effect; inactive means no such curve, though single readings can be large or run the other way. Potencies of inconclusive entries are doubtful fits and often do not repeat.

Target: Bromodomain adjacent to zinc finger domain protein 2B (Homo sapiens) (UniProt Q9UIF8)
Experiment: qHTS Assay for Inhibitors of BAZ2B; further: nearly all actives have a fitted effect of over 60% in size
Details: AlphaScreen BAZ2B-H3K14Ac peptide displacement; activity change, negative = inhibition: at 114 µM (top of the series)
Summary of the method: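 AlphaScreen displacement of biotin-H3(5-23)K14Ac peptide (50 nM final) from BAZ2B (50 nM final) in PBS pH 7.4, 0.01% Tween-20; complex preformed 30 min RT, then compounds (top 110 uM) 30 min RT, beads 20 min dark.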
On the % scale 0 is the no-effect control and ±100 the full control effect; potency means the concentration at half of the fitted maximal effect; tags describe the fitted curve by direction and shape.

Sequence of UniProt Q9UIF8 (Q9UIF8 whole entry, looked up, the tested form may be a part): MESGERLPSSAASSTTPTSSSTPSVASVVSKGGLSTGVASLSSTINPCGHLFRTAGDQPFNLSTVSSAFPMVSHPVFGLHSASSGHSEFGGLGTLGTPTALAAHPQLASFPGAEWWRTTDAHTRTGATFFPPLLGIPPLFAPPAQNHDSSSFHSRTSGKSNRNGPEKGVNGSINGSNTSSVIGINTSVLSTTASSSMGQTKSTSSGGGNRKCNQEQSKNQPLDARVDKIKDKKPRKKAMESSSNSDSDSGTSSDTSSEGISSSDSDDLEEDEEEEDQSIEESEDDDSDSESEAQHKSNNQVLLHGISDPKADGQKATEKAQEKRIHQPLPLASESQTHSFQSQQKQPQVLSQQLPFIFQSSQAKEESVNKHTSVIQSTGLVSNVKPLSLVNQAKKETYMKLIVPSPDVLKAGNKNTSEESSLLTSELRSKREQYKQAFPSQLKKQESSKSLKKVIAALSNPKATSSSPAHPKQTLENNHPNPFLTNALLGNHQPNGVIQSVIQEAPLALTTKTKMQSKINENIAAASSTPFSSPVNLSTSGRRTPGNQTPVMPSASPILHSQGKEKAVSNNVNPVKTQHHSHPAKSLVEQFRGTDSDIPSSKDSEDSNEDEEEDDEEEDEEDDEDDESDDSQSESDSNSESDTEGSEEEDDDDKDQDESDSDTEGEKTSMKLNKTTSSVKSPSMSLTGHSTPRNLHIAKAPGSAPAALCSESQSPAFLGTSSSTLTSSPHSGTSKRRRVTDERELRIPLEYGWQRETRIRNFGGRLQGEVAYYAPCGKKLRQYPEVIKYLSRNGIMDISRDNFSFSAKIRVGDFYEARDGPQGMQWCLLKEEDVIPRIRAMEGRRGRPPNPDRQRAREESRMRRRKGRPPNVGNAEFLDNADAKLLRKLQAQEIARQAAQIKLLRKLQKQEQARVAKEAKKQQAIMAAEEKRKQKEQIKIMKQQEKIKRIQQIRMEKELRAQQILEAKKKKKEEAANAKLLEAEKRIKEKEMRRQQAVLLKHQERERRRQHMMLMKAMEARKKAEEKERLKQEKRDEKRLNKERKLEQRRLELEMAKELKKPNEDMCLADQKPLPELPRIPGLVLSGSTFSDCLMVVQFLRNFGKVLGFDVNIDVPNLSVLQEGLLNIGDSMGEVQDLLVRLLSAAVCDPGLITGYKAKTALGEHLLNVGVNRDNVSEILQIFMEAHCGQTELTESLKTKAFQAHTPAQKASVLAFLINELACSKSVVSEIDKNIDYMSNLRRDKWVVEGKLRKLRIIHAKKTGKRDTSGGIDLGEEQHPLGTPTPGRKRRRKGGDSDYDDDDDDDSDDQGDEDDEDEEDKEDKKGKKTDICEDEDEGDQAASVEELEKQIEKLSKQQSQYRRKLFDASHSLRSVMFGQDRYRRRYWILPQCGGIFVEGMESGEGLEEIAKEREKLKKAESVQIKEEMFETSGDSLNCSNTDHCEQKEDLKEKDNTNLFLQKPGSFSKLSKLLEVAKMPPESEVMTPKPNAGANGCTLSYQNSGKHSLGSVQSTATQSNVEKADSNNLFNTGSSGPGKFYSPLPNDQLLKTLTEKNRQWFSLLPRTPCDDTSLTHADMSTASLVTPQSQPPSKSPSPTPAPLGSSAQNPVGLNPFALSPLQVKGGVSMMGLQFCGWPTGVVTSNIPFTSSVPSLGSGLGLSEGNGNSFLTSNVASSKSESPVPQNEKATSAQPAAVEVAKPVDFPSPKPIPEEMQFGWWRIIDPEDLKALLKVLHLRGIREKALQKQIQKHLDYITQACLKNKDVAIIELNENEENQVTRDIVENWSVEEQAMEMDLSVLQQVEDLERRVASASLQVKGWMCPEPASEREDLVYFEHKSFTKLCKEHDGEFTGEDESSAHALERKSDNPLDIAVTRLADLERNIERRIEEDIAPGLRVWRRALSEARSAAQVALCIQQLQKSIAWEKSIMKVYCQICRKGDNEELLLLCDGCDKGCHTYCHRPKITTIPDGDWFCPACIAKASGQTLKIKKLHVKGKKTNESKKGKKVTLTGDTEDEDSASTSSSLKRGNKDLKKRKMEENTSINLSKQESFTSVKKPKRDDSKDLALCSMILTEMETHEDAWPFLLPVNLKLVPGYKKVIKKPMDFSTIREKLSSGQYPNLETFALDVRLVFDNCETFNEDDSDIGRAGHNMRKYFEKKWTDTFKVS

SMILES	Potency	activity change, negative = inhibition
Cc1ccc(C(=O)NC(=S)Nc2ccc(N3CCOCC3)cc2)cc1	active: 14.1 µM	–
O=C(CCN1C(=O)/C(=C/c2ccc(F)cc2)SC1=S)NCCc1cnc[nH]1	active: 17.8 µM	–
NC(=O)CC(NC(=O)c1ccc(Br)cc1)c1ccc(NC2CCCCCC2)c([N+](=O)[O-])c1 (stereo not given)	inconclusive: 79.4 µM [inhibitor, single point]	–
Cc1nn(S(=O)(=O)c2ccc(C(C)C)cc2)c(C)c1S(=O)(=O)N1CCOCC1	inconclusive: 79.4 µM [inhibitor, partial curve]	–
Cc1cc(C(=O)Nc2ccccc2C(=O)N2CCCCC2)ccc1[N+](=O)[O-]	–	inactive: -19.4%
Cc1scc(C(=O)N2CCN(c3ccc(Cl)cc3)CC2)c1C	inconclusive: 50.1 µM [inhibitor, partial curve]	–
Cc1ccc(OCC(=O)c2ccc(Cl)s2)c([N+](=O)[O-])n1	active: 50.1 µM	–
Cc1c(NC(=O)C(=O)/C=C(/O)c2ccccc2)c(=O)n(-c2ccccc2)n1C	active: 50.1 µM	–
CC(=O)Nc1ccc2nc(CN3CCN(Cc4ccc(F)cc4)C(CCO)C3)ccc2c1 (stereo not given)	–	inactive: -6.71%
CC1=C(C(=O)OCc2ccccc2)C(c2ccc(C(C)(C)C)cc2)NC(=O)N1CCCCCC(=O)O (stereo not given)	active: 50.1 µM	–
O=C(CSc1nnc(-c2ccco2)n1Cc1ccccc1)c1ccc(F)cc1	inconclusive: 89.1 µM [inhibitor, single point]	–
O=C(CN1CCC(n2nnc3cc(F)ccc32)CC1)NCc1ccco1	active: 79.4 µM	–
OCCN(Cc1ccccc1)CC1CC2C=CC1C2 (stereo not given)	inconclusive: 79.4 µM [inhibitor, single point]	–
Cn1cccc1C1C(C#N)=C(N)OC2=C1C(=O)CC(C)(C)C2 (stereo not given)	inconclusive: 79.4 µM [inhibitor, single point]	–
Cc1nc2c(N=Nc3ccccc3F)c(N)nn2c(N)c1C#N	inconclusive: 56.2 µM [inhibitor, partial curve, poor fit]	–
c1ccc2c(c1)oc1c(Nc3ccc(CN4CCOCC4)cc3)ncnc12	inconclusive: 89.1 µM [inhibitor, single point]	–
CN1CCN(c2ccc(S(=O)(=O)N3CCCCC3)cc2NC(=O)Cc2ccc(Cl)cc2)CC1	–	inactive: -2.22%
Cc1ccc2nc(N(CCCN(C)C)C(=O)c3ccc(S(=O)(=O)N4CCCCCC4)cc3)sc2c1	inconclusive: 50.1 µM [inhibitor, partial curve]	–
C#CCOCCOCCOCCNc1nc(N2CCN(C(=O)[C@H](CCCCN)n3cc(CCCC)nn3)CC2)nc(N2CCN(C(=O)[C@H](Cc3ccc(O)cc3)n3cc(CCO)nn3)CC2)n1	inconclusive: 79.4 µM [inhibitor, single point]	–
CCC(C(=O)Nc1nnc(-c2ccco2)s1)c1ccccc1 (stereo not given)	inconclusive: 70.8 µM [inhibitor, partial curve]	–
COc1ccc(CCNc2oc(Cc3ccccc3)nc2C#N)cc1OC	inconclusive: 79.4 µM [inhibitor, single point]	–
O=C(NCC(=O)N1CCN(S(=O)(=O)c2ccccc2C(F)(F)F)CC1)c1sc2ccccc2c1Cl	inconclusive: 100 µM [inhibitor, single point]	–
O=C(NCCN1CCCCC1)Nc1cccc(F)c1	–	inactive: -5.76%
COc1ccc(C)cc1NC(=O)C(Sc1nnc(-c2ccncc2)n1-c1ccc(Cl)cc1)c1ccccc1 (stereo not given)	inconclusive: 44.7 µM [inhibitor, partial curve]	–

SMILES	Potency	activity change, negative = inhibition
CN(C)c1ccc(/C=C/c2nc(-c3ccccc3O)n(-c3ccccc3)n2)cc1	inconclusive: 25.1 µM [inhibitor, full curve]	–
Cc1ccc2nc(-c3cccs3)c(Nc3c(C)cccc3C)n2c1	–	inactive: -25.5%
CN(C)c1ccc(NC(=O)CN2CCc3ccccc3C2)cc1	active: 39.8 µM	–
C/C(=N\O)C1(C)N(O)C(C)(C)C(c2ccc(F)cc2)=[N+]1[O-] (stereo not given)	inconclusive: 10 µM [inhibitor, single point]	–
CCOC(=O)c1c(C)[nH]c(C)c1S(=O)(=O)N1CCN(C(=O)c2ccco2)CC1	–	inactive: -14.5%
Clc1ccc(-c2nc(Cc3ccccc3Cl)no2)cc1	–	inactive: 316%
Nc1c(S(=O)(=O)O)cc(NC(=O)c2ccccc2)c2c1C(=O)c1ccccc1C2=O	active: 3.55 µM	–
O=C(O)c1ccc(CSc2nc3ccc(NC(=O)c4ccccc4C(=O)O)cc3s2)cc1	inconclusive: 56.2 µM [inhibitor, partial curve]	–
COc1cc(NC(=O)CN2CCN(S(=O)(=O)c3ccc(C(C)C)cc3)CC2)cc(OC)c1	inconclusive: 70.8 µM [inhibitor, partial curve]	–
COc1ccc(N2CCN(C(=O)CS(=O)Cc3nc(-c4ccc(OC)c(OC)c4)oc3C)CC2)cc1 (stereo not given)	inconclusive: 89.1 µM [inhibitor, partial curve]	–
Cc1ccc(NC(=O)CSc2nc(=O)n(Cc3cccnc3)c3c2CCC3)cc1F	–	inactive: -5.83%
COc1cc(-c2nnc(SCC(=O)Nc3ccc4c(c3)OCCO4)o2)cc(OC)c1OC	inconclusive: 100 µM [inhibitor, single point]	–
Clc1c(OCCCn2ccnc2)ccc2ccccc12	active: 39.8 µM	–
COCCCNC(=O)c1oc2c(c1C)-c1nn(Cc3ccccc3Cl)cc1CC2	–	inactive: -17.2%
Cc1cc(=O)[nH]c(SCC(=O)Nc2ccc(S(=O)(=O)N3CCCCC3)cc2)n1	inconclusive: 11.2 µM [inhibitor, full curve, poor fit]	–
Cc1ccc(SCCNC(=O)CN(c2ccccc2)S(=O)(=O)N(C)C)cc1	–	inactive: 1.06%
COc1ccccc1CNc1nc(-c2ccco2)nn1S(=O)(=O)c1ccc2ccccc2c1	inconclusive: 79.4 µM [inhibitor, single point]	–
CN(C)c1ccc(C(CNC(=O)c2ccccc2)N2CCc3ccccc32)cc1 (stereo not given)	active: 11.2 µM	–
COc1ccc(NC(=O)CSc2ccccn2)cc1OC	–	inactive: -11.8%
O=S(=O)(c1ccc(Cl)cc1)N1CCN(Cc2ccc(O)c3ncccc23)CC1	active: 31.6 µM	–
CCOC(=O)Cc1cn2c(=O)cc(CSCC(=O)Nc3ccc(C)c(C)c3)nc2s1	inconclusive: 79.4 µM [inhibitor, single point]	–
O=C(O)Cn1cc(/C=N/Nc2ccc([N+](=O)[O-])cn2)c2ccccc21	inconclusive: 50.1 µM [inhibitor, partial curve]	–
Cc1onc(-c2ccccc2Cl)c1C(=O)Nc1ccc(-n2nncc2-c2ccco2)cc1	inconclusive: 79.4 µM [inhibitor, single point]	–
CC(Nc1ccc(N2CCOCC2)cc1)C(=O)N1c2ccccc2CC1C (stereo not given)	active: 35.5 µM	–

SMILES	Potency	activity change, negative = inhibition
COc1cc([N+](=O)[O-])cc(/C=N/NC(=O)c2cc(C)nc3ccccc23)c1O	active: 20 µM	–
COCc1cc(CN2CCCC(C(=O)Nc3ccc(-c4ccco4)cc3)C2)ccc1OC (stereo not given)	inconclusive: 39.8 µM [inhibitor, partial curve]	–
CC(C)OCCCn1c(=O)c2ccccc2n2c(-c3ccc(F)cc3)nnc12	inconclusive: 56.2 µM [inhibitor, partial curve]	–
Nc1nonc1-n1nnc(C(=O)N/N=C/c2ccccn2)c1-c1ccccc1	inconclusive: 89.1 µM [inhibitor, single point]	–
O=C(c1cc2cc(Cl)ccc2[nH]1)N1CCN(C(=O)c2ccco2)CC1	inconclusive: 1.58 µM [inhibitor, full curve, poor fit]	–
Cc1ccc(-c2cc(-c3ccc(F)cc3)nc(N)c2C#N)o1	–	inactive: -2.65%
Cc1cccc(N2CCN(Cc3ccoc3)CC2)c1C	active: 50.1 µM	–
CCC(=O)c1ccc(OCC(=O)Nc2ccccc2N2CCCCC2)cc1	–	inactive: 2.52%
COc1ccc(NC(=O)COC(=O)CCCc2c[nH]c3ccccc23)cc1OC	inconclusive: 44.7 µM [inhibitor, partial curve]	–
CCN1CCN(c2ncc3c(n2)CCN(Cc2cc(F)cc(F)c2)C3)CC1	active: 50.1 µM	–
Cc1cc(Cl)nc(-n2nc(C)cc2C)n1	–	inactive: 5.01%
CCOC(=O)C1CCCN(C(=O)c2cn(CC)c3ccc(S(=O)(=O)N4CCCC4)cc3c2=O)C1 (stereo not given)	inconclusive: 89.1 µM [inhibitor, single point]	–
C=C(C)C(=O)Nc1nnc(-c2ccccc2C)s1	–	inactive: -23.6%
CN1CCN(NC(=O)c2cc(-c3ccccn3)nc3ccccc23)CC1	inconclusive: 89.1 µM [inhibitor, single point]	–
Nc1nc(Nc2ccccc2F)nc(N2CCOCC2)c1[N+](=O)[O-]	inconclusive: 79.4 µM [inhibitor, single point]	–
O=C(c1ccccc1Cl)N1CCN(Cc2ccc3c(c2)OCO3)CC1	inconclusive: 89.1 µM [inhibitor, single point]	–
C/C(=N\Nc1ccc([N+](=O)[O-])cc1[N+](=O)[O-])c1ccc(-n2nncc2C(C)(C)C)cc1	inconclusive: 25.1 µM [inhibitor, full curve]	–
CC(=O)Nc1ccc(SCC(=O)c2cc(C)n(C)c2C)cc1	inconclusive: 89.1 µM [inhibitor, single point]	–
N#C/C(=C/c1ccc(-c2ccccc2[N+](=O)[O-])o1)C(=O)NCCN1CCCCC1	inconclusive: 70.8 µM [inhibitor, single point]	–
COc1cc(N/N=C/c2ccccc2O)ncn1	active: 28.2 µM	–
Cc1nnc2sc(SCC(=O)Nc3ccc(Cl)cc3)nn2c1=O	active: 39.8 µM	–
O=C(CN1CCCCC1)NNc1nc(-c2ccccc2)c2cc(Br)ccc2n1	inconclusive: 20 µM [inhibitor, full curve]	–
